Binding data for two molecules are collected here from publication PMC5201011 (2016).

In experiment [1] the target is T1, GST–Tks5-PX (UniProt Q5TCZ1).
T1 sequence: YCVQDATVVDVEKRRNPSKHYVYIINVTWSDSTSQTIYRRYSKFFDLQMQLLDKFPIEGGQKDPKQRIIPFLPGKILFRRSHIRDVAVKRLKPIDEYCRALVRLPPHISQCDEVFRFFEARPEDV
As to the kind of experiment: pull-down; 10 µg GST–Tks5 fragment with 1% Triton X-100 lysate of MDA-MB-231 cells stably expressing FLAG–Rab40b; glutathione–Sepharose beads; washed in 20 mM Hepes pH 7.4, 150 mM NaCl, 1 mM MgCl2, 0.1% Triton X-100; anti-FLAG blot; only the target purified.

The target in experiment [2] is T2, GST–Tks5 SH3-1 domain (UniProt Q5TCZ1).
T2 sequence: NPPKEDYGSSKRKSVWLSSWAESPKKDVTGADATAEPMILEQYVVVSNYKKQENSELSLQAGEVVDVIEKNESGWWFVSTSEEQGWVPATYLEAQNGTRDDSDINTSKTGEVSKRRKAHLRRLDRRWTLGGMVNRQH
The experiment is described as above.

Experiment [3] addresses T3, GST–Tks5 SH3-4 domain (UniProt Q5TCZ1).
T3 sequence: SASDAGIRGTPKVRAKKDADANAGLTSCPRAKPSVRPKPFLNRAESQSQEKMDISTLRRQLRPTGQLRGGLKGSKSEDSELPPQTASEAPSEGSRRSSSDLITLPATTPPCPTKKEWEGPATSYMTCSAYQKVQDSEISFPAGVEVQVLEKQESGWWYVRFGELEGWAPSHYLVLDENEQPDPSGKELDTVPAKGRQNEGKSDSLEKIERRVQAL
The experiment is described as above.

The target of experiment [4] is T4, GST–Tks5-PX I27A (UniProt Q5TCZ1).
T4 sequence: T1 sequence with I24A
The experiment is described as above.

In experiment [5] the target is T1, GST–Tks5-PX. As to the kind of experiment: pull-down; GST–Tks5-PX-coated glutathione beads incubated with MDA-MB-231 lysates in the presence or absence of GTPγS; anti-FLAG blot; only the target purified.
Experiment [6] concerns the target T5, FLAG–Rab40b (UniProt Q12829).
T5 sequence: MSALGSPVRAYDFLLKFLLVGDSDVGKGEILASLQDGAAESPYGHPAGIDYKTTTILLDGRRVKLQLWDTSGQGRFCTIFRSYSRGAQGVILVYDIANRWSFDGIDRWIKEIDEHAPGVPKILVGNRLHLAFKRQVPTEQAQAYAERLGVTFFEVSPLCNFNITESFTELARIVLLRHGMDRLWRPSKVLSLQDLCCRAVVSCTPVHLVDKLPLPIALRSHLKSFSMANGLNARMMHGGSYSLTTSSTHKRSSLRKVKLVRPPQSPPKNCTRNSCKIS
As to the kind of experiment: co-IP; lysates of MDA-MB-231 cells stably expressing FLAG–Rab40b, incubated in the absence or presence of GTPγS; anti-FLAG immunoprecipitation, anti-Tks5 immunoblot; non-specific mouse IgG as control.

Residue numbers refer to the chain shown, from its start. No constants are given. Whether binding was seen depends on the method and setting. In cells and extracts the contact can be indirect. Some binding calls cover weakened binding; strength is not graded here. Tags and fused reporters may be left off the sequences shown.

B1: FLAG–Rab40b (protein, UniProt Q12829 1-278)
chain: T5 sequence
On to B1, for which the binding result in experiment [1] is reported as “binds”; in experiment [2], “no binding (tested: 10 µg GST–Tks5 fragment)”; in experiment [3], “no binding (tested: 10 µg GST–Tks5 fragment)”; in experiment [4], “binds”; in experiment [5], “binds”.

B2: Tks5 (tyrosine kinase substrate 5) (protein, UniProt Q5TCZ1 1-1133)
chain: MLAYCVQDATVVDVEKRRNPSKHYVYIINVTWSDSTSQTIYRRYSKFFDLQMQLLDKFPIEGGQKDPKQRIIPFLPGKILFRRSHIRDVAVKRLKPIDEYCRALVRLPPHISQCDEVFRFFEARPEDVNPPKEDYGSSKRKSVWLSSWAESPKKDVTGADATAEPMILEQYVVVSNYKKQENSELSLQAGEVVDVIEKNESGWWFVSTSEEQGWVPATYLEAQNGTRDDSDINTSKTGEVSKRRKAHLRRLDRRWTLGGMVNRQHSREEKYVTVQPYTSQSKDEIGFEKGVTVEVIRKNLEGWWYIRYLGKEGWAPASYLKKAKDDLPTRKKNLAGPVEIIGNIMEISNLLNKKASGDKETPPAEGEGHEAPIAKKEISLPILCNASNGSAVGVPDRTVSRLAQGSPAVARIAPQRAQISSPNLRTRPPPRRESSLGFQLPKPPEPPSVEVEYYTIAEFQSCISDGISFRGGQKAEVIDKNSGGWWYVQIGEKEGWAPASYIDKRKKPNLSRRTSTLTRPKVPPPAPPSKPKEAEEGPTGASESQDSPRKLKYEEPEYDIPAFGFDSEPELSEEPVEDRASGERRPAQPHRPSPASSLQRARFKVGESSEDVALEEETIYENEGFRPYAEDTLSARGSSGDSDSPGSSSLSLTRKNSPKSGSPKSSSLLKLKAEKNAQAEMGKNHSSASFSSSITINTTCCSSSSSSSSSLSKTSGDLKPRSASDAGIRGTPKVRAKKDADANAGLTSCPRAKPSVRPKPFLNRAESQSQEKMDISTLRRQLRPTGQLRGGLKGSKSEDSELPPQTASEAPSEGSRRSSSDLITLPATTPPCPTKKEWEGPATSYMTCSAYQKVQDSEISFPAGVEVQVLEKQESGWWYVRFGELEGWAPSHYLVLDENEQPDPSGKELDTVPAKGRQNEGKSDSLEKIERRVQALNTVNQSKKATPPIPSKPPGGFGKTSGTPAVKMRNGVRQVAVRPQSVFVSPPPKDNNLSCALRRNESLTATDGLRGVRRNSSFSTARSAAAEAKGRLAERAASQGSDSPLLPAQRNSIPVSPVRPKPIEKSQFIHNNLKDVYVSIADYEGDEETAGFQEGVSMEVLERNPNGWWYCQILDGVKPFKGWVPSNYLEKKN
As for B2, the binding entry in experiment [6] is “binds”.
